Data as given in PubChem BioAssay AID1508623 (National Center for Advancing Translational Sciences (NCATS), 2021).
About 450 (0.94%) of roughly 48,000 compounds were called active. About 19% were inconclusive and are not listed. Calls follow the shape of the dose curve; as a rule, active = well fitted inhibition curve with a large enough effect; inconclusive = small, poorly fitted or top-dose-only effect; inactive = no such curve, though single readings can be large or run the other way. The list shows a part of the results.

Assay: Primary qHTS for Identification of Small Molecule Inhibitors of Huntingtin Promoter Activity; also: nearly all actives have a fitted effect of over 50% in size
Settings: HEK293 HTT promoter firefly luciferase reporter (activity 0% = vehicle and -100% = no light), 24 h; series mostly up to 57.5 µM; activity change, negative = inhibition: at the top concentration
How it was run: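 Firefly luciferase signal from promoter-reporter HEK293 cells was scaled between vehicle (0%) and zero RLU (-100%). Compounds were tested at final concentrations of up to 57.5 uM over 24 h at 37 degrees C. PTC124 at 50 uM final served as control inhibitor.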

Activity change, negative = inhibition, inactive:
Cc1ccc(Cn2c(CN3CCC(C(=O)NCc4cccnc4)CC3)cc3ccccc32)cc1 -4.84%
CC(=O)c1cccc(NC(=O)CCS(=O)(=O)c2ccc3c(c2)n(C)c(=O)c(=O)n3C)c1 -16.5%
COc1ccc(OC)c(NC(=O)CSc2c3c(nc4cc(Cl)ccc24)CCCC3)c1 3.52%
NC(=O)CSc1nc2cc3c(cc2c(=O)n1CCCCCC(=O)NCc1ccc2c(c1)OCO2)OCO3 -9.65%
O=C(Nc1ccccc1C(F)(F)F)C1(S(=O)(=O)c2ccc(Cl)cc2)CC1 -7.19%
CN1CC(=O)N(CC(=O)Nc2cccc(C#N)c2)c2ccccc2C1=O 16.7%
COc1ccc(OC)c(NC(=O)C2CCCN(S(=O)(=O)c3ccc4[nH]c(=O)ccc4c3)C2)c1 (stereo not drawn) -9.6%
COc1ccc(-c2cn3c(n2)sc2cc(C(=O)NCC(C)c4ccccc4)ccc23)cc1 (stereo not drawn) 4.51%
Cc1c(Cl)cccc1NC(=O)Nc1nnc(N(C)C2CCCCC2)s1 -2.46%
Cc1ccc(CCNC(=O)c2cnc3c(C)cccn3c2=O)cc1 0%
Cc1ccc(C(=O)c2cn(Cc3cc(C)ccc3C)c3nc(C)ccc3c2=O)cc1 -29.2%
CCCCCCNC(=O)CCc1c(C)nc2nc(-c3cc(OC)cc(OC)c3)nn2c1C -16.2%
CCOCCCNC(=O)C(NC(=O)C1CCC(C)CC1)C(C)C (stereo not drawn) -4.21%
CN(C1CCCCC1)S(=O)(=O)c1ccc2c(c1)c(=O)c(C(=O)N1CCN(c3ccc(F)cc3)CC1)cn2C -12.4%
CCc1ccccc1NC(=O)c1nn(-c2ccc(C)cc2)c(=O)c2c1c1ccccc1n2C -4.55%
CC(C)c1cc(C(=O)NCc2ccc(F)cc2)no1 55.4%
CCS(=O)(=O)n1nc(-c2ccco2)nc1NCc1ccc(C(C)C)cc1 0.937%
CC(=O)Nc1ccc(NC(=O)C(NC(=O)C2CCC(C)CC2)C(C)C)cc1 (stereo not drawn) -19.7%
CN(C)CCOc1ccc(C(=C(CCCl)c2ccccc2)c2ccccc2)cc1 1.07%
Cc1ccc(-n2cnc3cc(C(=O)NC4CCCCCC4)ccc32)c(C)c1 -29.5%
CCc1ccc(Cn2nnc3c(=O)[nH]c(C4CCCN(C(=O)c5cccc(Cl)c5)C4)nc32)cc1 (stereo not drawn) -19.6%
O=C(Nc1ccc(F)cc1)c1ccc(CN2CC(=O)N3CCCCC3C2=O)cc1 (stereo not drawn) -22%
Cc1cc(C)cc(NC(=O)Cn2nc(N3CCN(c4ccccc4)CC3)ccc2=O)c1 -13.7%
CC(C)c1ccc(OCC(=O)Nc2cc(-c3ccccc3)no2)cc1 2.94%
COc1ccc(S(=O)(=O)NCCc2sc(-c3cccnc3)nc2C)cc1OC 0.682%
COc1cc(CN(C(=O)c2ccccc2Br)c2ccccn2)cc(OC)c1OC -16.2%
CCc1ccc(NC(=O)c2cccc(N3CCCS3(=O)=O)c2)cc1 -23.1%
CCOC(=O)c1ccc(N)cc1 -17%
CCN1CCSc2ccc(C(=O)NCc3ccc(F)cc3)cc21 -17.8%
CCN(CC)CCOC(=O)C(c1ccccc1)c1ccccc1 -0.377%
OC(CCCN1CCCCC1)(c1ccccc1)c1ccccc1 -8.61%
CCc1cccc(NC(=O)Cc2nc(-c3ccc(OC)cc3)no2)c1 -14.6%
COCCCNC(=O)c1nn(C)c2c1CS(=O)(=O)c1ccccc1-2 -12.2%
COc1ccc(CNC(=O)CC2N=C3c4ccccc4N=C(SCC(=O)Nc4ccc(C(C)C)cc4)N3C2=O)cc1 (stereo not drawn) 3.28%
COc1ccc(-c2cn3c(n2)sc2cc(C(=O)NC(C)C45CC6CC(CC(C6)C4)C5)ccc23)cc1 (stereo not drawn) 33.2%
COCc1cc(C)nc2sc3c(c12)NC(c1ccccc1C(=O)O)N(c1cccc(C(F)(F)F)c1)C3=O (stereo not drawn) 1.38%
COc1cc([N+](=O)[O-])ccc1NC(=O)c1nc2ccccc2n(C)c1=O 7.52%
Cc1ccc(S(=O)(=O)c2nc(-c3cccc(Br)c3)oc2N2CCCCCC2)cc1 -16.7%
O=C(CSc1nnc2[nH]c(=O)cc(-c3ccccc3)n12)Nc1ccc(OC(F)(F)F)cc1 18.7%
COc1cccc(N2CCN(C(=O)CCSCc3ccccc3F)CC2)c1 -25.1%
CCN(CC)c1cc(C)c2cc(NC(=O)c3cc(OC)cc(OC)c3)ccc2n1 -3.6%
CCOC(=O)C1CCN(S(=O)(=O)c2cc3c4c(c2)C(C)C(=O)N4CCC3)CC1 (stereo not drawn) -20.2%
Cc1cc(=O)n(Cc2c(F)cccc2Cl)c2c1c(C)nn2-c1cccc(F)c1 2.24%
O=C(Cc1ccc(Cl)cc1)NCC(c1cccs1)S(=O)(=O)c1ccccc1 (stereo not drawn) -24.1%
CCCSc1ncc(Cl)c(C(=O)Nc2sc(C(C)=O)c(C)c2C(=O)OCC)n1 14.9%
Cc1ccc(S(=O)(=O)N(CC(=O)Nc2ccc(F)cc2F)Cc2ccc(F)cc2)cc1 -28.3%
CC(=O)Nc1ccc(NC(=O)c2cc(CN3CCCC3)on2)cc1 15.8%
Cc1ccc(C)c(NC(=O)CSc2nnc3[nH]c(=O)cc(-c4ccccc4)n23)c1 18.9%
CCOc1ccc(NC(=O)Cn2c(=O)n(CC3CCC(C(=O)NCCc4ccccc4)CC3)c(=O)c3ccccc32)cc1 (stereo not drawn) -8.54%
COc1ccc(NC(=O)CSc2oc(-c3ccco3)nc2S(=O)(=O)c2ccc(C)cc2)c(OC)c1 -23.1%
Cc1c(CNC(C)CCc2ccccc2)c(C(=O)O)c(C)n1Cc1ccc(F)cc1 (stereo not drawn) -26.8%
CN(C)S(=O)(=O)c1ccc2c(c1)N(CC(=O)Nc1cccc(C(F)(F)F)c1)C(=O)CS2 -35%
CC(C)(C)OC(=O)N1CCC(N2CCN(Cc3ccccc3)C(=O)C2=O)CC1 -11.8%
CCOC(=O)c1ccccc1NC(=O)NCc1c(-n2cccc2)sc2c1CCCC2 -26.9%
Clc1ccc(-c2cc3ncc4c(n3n2)-c2ccccc2OC4)cc1 21.8%
O=C(Nc1ccccc1-c1nc2ccccc2s1)c1ccc(F)cc1 -7.01%
COc1ccc(CCNc2nc3c(-c4cccc(C(F)(F)F)c4)nnn3c3ccccc23)cc1OC -7.07%
CCOc1ccc(NC(=O)c2cc3cc(C)ccc3n2C)cc1 -7.37%
COc1ccccc1NC(=O)CSc1oc(-c2ccco2)nc1S(=O)(=O)c1ccc(C)cc1 -25.7%
CCOc1ccc(NC(=O)c2oc3ccccc3c2NC(=O)C(C)(C)C)cc1 -15.7%
CCOc1ccc2nc(N3CCCC(C(=O)Nc4ccc(OC)cc4)C3)sc2c1 (stereo not drawn) 44.2%
COc1ccc(CCNC(=O)c2c(O)nc3ccccn3c2=O)cc1OC -11.6%
Cc1ccc(C(=O)Nc2nnc(S(=O)(=O)N(C)Cc3ccc(Cl)cc3)s2)cc1 11.2%
COc1cc(Nc2ncc3c(n2)CCN(Cc2ccc(OC(C)C)c(OC)c2)C3)cc(OC)c1 -34.1%
COc1ccc(NC(=O)c2csnn2)cc1Cl 44.1%
CCc1nn2c(=O)cc(COC(=O)c3ccc(NC(=O)COc4ccccc4C)cc3)nc2s1 -19.4%
Cc1ccc(NC(=O)N2CC3CCCN3c3ccccc32)cc1Cl (stereo not drawn) -28%
O=C(Cn1ncc2c3ccccc3n(Cc3ccccc3F)c2c1=O)N1CCCCCC1 -7.64%
CCN1CCN(c2nnc(-n3cccc3C(=O)NCc3ccccc3OC)s2)CC1 -4.1%
COc1ccc(NC(=O)C2CCN(C3=NS(=O)(=O)C(c4ccc(C)c(C)c4)=C3C)CC2)c(OC)c1 -13.4%
Cc1ccccc1OC(=O)c1cc(-c2ccc3c(c2)OCCO3)on1 -5.57%
O=C(NCCc1csc(-c2cccc(F)c2)n1)C(=O)Nc1cc(F)ccc1F -1.21%
COc1cccc(CNC(=O)C2CCN(S(=O)(=O)c3c(C)noc3/C=C/c3cccs3)CC2)c1 -30%
Cc1ccc(C)c(NC(=O)Cc2coc3cc(C)cc(C)c23)c1 -15.6%
O=C(c1cc2ccc3cccnc3c2[nH]1)N1CCCCC1 -49.6%
CCc1ccccc1NC(=O)Cn1nnc2sc3c(c2c1=O)CCC(C(C)(C)C)C3 (stereo not drawn) -19.5%
COc1ccc(C)cc1NS(=O)(=O)c1cnc(N)nc1 -3.32%
CCOC(=O)c1sc2ncn(CC(=O)Nc3cc(Cl)ccc3C)c(=O)c2c1C 2.69%
CCOC(=O)c1cc2c(=O)n3ccccc3nc2n(CC2CCCO2)c1=NC(=O)c1ccccc1Br (stereo not drawn) -6.75%
CC(=O)c1ccc(N2CCN(C(=O)c3cc(S(=O)(=O)N4CCCCCC4)cn3C)CC2)cc1 -23.9%
Cc1cccc(NC(=O)CSc2ccc(-c3sc(-c4ccccc4)nc3C)nn2)c1C 4.53%
Cc1cc(C(=O)Nc2c(C)cccc2C)n(-c2ccccc2)n1 -15.6%
O=C(OCc1cc(=O)n2nc(-c3cccs3)sc2n1)c1cccc(F)c1 2.25%
Cc1ccc(S(=O)(=O)c2nnn3c2nc(NC2CCCCCC2)c2sccc23)cc1C -12.6%
CC(C)c1nn2c(=O)cc(COC(=O)C3CCCCC3)nc2s1 -2.33%
CCCOc1cccc(C2c3c(oc4ccc(F)cc4c3=O)C(=O)N2CCCN2CCOCC2)c1 (stereo not drawn) -10.9%
CCCOc1ccc(-c2nonc2NC(=O)c2ccco2)cc1OCCC -29.9%
CC1CCN(C(=O)c2cc3c(=O)n(C)c4cc(Cl)ccc4c3s2)CC1 4.17%
Cc1cc(Br)cc(C)c1NC(=O)c1sc2ncn(Cc3cccc(F)c3)c(=O)c2c1C 1.8%
CCNC(=O)c1ccc(C)c(-n2c(C)nc3cccnc32)c1 -16.2%
Cc1ccc(NC(=O)Cn2c(=O)c3ccc(Cl)cc3n3nncc23)cc1 -14.1%
O=C(Cn1c(-c2cccs2)cc2ccccc21)N1CCN(c2ccc(Cl)cc2)CC1 -10%
COc1cccc(-c2csc(-c3c(N)c(C(=O)c4ccc5c(c4)OCO5)n4ccccc34)n2)c1 -4.03%
CCOc1ccc(C2C(C(=O)Nc3ccccc3)=C(C)Nc3nc(-c4ccccc4)nn32)cc1OC (stereo not drawn) -7.11%
Cc1ccc(S(=O)(=O)NC(=O)NN2CCCCCC2)cc1 8.24%
COc1ccc(-c2cn3c(n2)sc2cc(C(=O)NCCC4=CCCCC4)ccc23)cc1 -0.752%
COc1cccc(OC)c1C(=O)N[C@@H]1C(=O)N2[C@@H]1SC(C)(C)[C@@H]2C(=O)O 9.7%
COc1ccc(OC)c(NC(=O)C(C)n2c(=O)cc(C)c3c(C)nn(-c4ccccc4)c32)c1 (stereo not drawn) 13%
